Results taken from the supplement of paper PMC9151546.
Many values rest on one well or one pass, so single values are uncertain.

Key:
CHO-K1 [1] = experiment: hypodiploid nuclei frequency (% of nucleated events); higher = more hypodiploid events (aneugenic)
Description: (§1)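 Flow-cytometric in vitro micronucleus assay (Litron MicroFlow) in CHO-K1 cells in 96-well plates, 19 concentrations (4.5-200 µM, n=1 per concentration). Without S9, cells were exposed for 24 h and sampled at 48 h. With Aroclor 1254-induced rat liver S9, cells were exposed for 3-4 h and sampled at 27-28 h. Read-outs are %MN and %hypodiploid nuclei relative to nucleated events, and relative survival as the nuclei-to-bead ratio versus the 1% DMSO vehicle control (x100).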

CHO-K1 [2] = experiment: micronucleus frequency (% of nucleated events); higher = more micronuclei (genotoxic)
CHO-K1 [3] = experiment: relative survival (nuclei to bead ratio vs DMSO control) (% of vehicle control); higher = more surviving cells
Description: as §1

[4] = concentration: 4.48 (µM), S9 metabolic activation: with S9, exposure time: 3-4 hours
[5] = concentration: 4.48 (µM), S9 metabolic activation: without S9, exposure time: 24 hours
[6] = concentration: 5.6 (µM), S9 metabolic activation: with S9, exposure time: 3-4 hours
[7] = concentration: 5.6 (µM), S9 metabolic activation: without S9, exposure time: 24 hours
[8] = concentration: 7 (µM), S9 metabolic activation: with S9, exposure time: 3-4 hours
[9] = concentration: 7 (µM), S9 metabolic activation: without S9, exposure time: 24 hours
[10] = concentration: 8.75 (µM), S9 metabolic activation: with S9, exposure time: 3-4 hours
[11] = concentration: 8.75 (µM), S9 metabolic activation: without S9, exposure time: 24 hours
[12] = concentration: 10.9 (µM), S9 metabolic activation: with S9, exposure time: 3-4 hours
[13] = concentration: 10.9 (µM), S9 metabolic activation: without S9, exposure time: 24 hours
[14] = concentration: 13.7 (µM), S9 metabolic activation: with S9, exposure time: 3-4 hours
[15] = concentration: 13.7 (µM), S9 metabolic activation: without S9, exposure time: 24 hours
[16] = concentration: 17.1 (µM), S9 metabolic activation: with S9, exposure time: 3-4 hours
[17] = concentration: 17.1 (µM), S9 metabolic activation: without S9, exposure time: 24 hours
[18] = concentration: 21.4 (µM), S9 metabolic activation: with S9, exposure time: 3-4 hours
[19] = concentration: 21.4 (µM), S9 metabolic activation: without S9, exposure time: 24 hours
[20] = concentration: 26.7 (µM), S9 metabolic activation: with S9, exposure time: 3-4 hours
[21] = concentration: 26.7 (µM), S9 metabolic activation: without S9, exposure time: 24 hours
[22] = concentration: 33.4 (µM), S9 metabolic activation: with S9, exposure time: 3-4 hours
[23] = concentration: 33.4 (µM), S9 metabolic activation: without S9, exposure time: 24 hours
[24] = concentration: 41.7 (µM), S9 metabolic activation: with S9, exposure time: 3-4 hours
[25] = concentration: 41.7 (µM), S9 metabolic activation: without S9, exposure time: 24 hours
[26] = concentration: 52.2 (µM), S9 metabolic activation: with S9, exposure time: 3-4 hours
[27] = concentration: 52.2 (µM), S9 metabolic activation: without S9, exposure time: 24 hours
[28] = concentration: 65.2 (µM), S9 metabolic activation: with S9, exposure time: 3-4 hours
[29] = concentration: 65.2 (µM), S9 metabolic activation: without S9, exposure time: 24 hours
[30] = concentration: 81.5 (µM), S9 metabolic activation: with S9, exposure time: 3-4 hours
[31] = concentration: 81.5 (µM), S9 metabolic activation: without S9, exposure time: 24 hours
[32] = concentration: 102 (µM), S9 metabolic activation: with S9, exposure time: 3-4 hours
[33] = concentration: 102 (µM), S9 metabolic activation: without S9, exposure time: 24 hours
[34] = concentration: 127 (µM), S9 metabolic activation: with S9, exposure time: 3-4 hours
[35] = concentration: 127 (µM), S9 metabolic activation: without S9, exposure time: 24 hours
[36] = concentration: 159 (µM), S9 metabolic activation: with S9, exposure time: 3-4 hours
[37] = concentration: 159 (µM), S9 metabolic activation: without S9, exposure time: 24 hours
[38] = concentration: 199 (µM), S9 metabolic activation: with S9, exposure time: 3-4 hours
[39] = concentration: 199 (µM), S9 metabolic activation: without S9, exposure time: 24 hours
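Throughout, for hypodiploid nuclei frequency (% of nucleated events): hypodiploid nuclei gated on a flow cytometer with 488 nm excitation after SYTOX Green staining, cultures at 37 °C, positive controls vinblastine without S9 and cyclophosphamide with S9.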
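Throughout, for micronucleus frequency (% of nucleated events): cells lysed with nuclei stained by SYTOX Green, then micronucleus-gated events counted against nucleated events by flow cytometry with 488 nm excitation.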
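Throughout, for relative survival (nuclei to bead ratio vs DMSO control): Lysed-cell nuclei stained with SYTOX Green and counted against counting beads by flow cytometry at 488 nm excitation, with vinblastine (no S9) and cyclophosphamide (plus S9) as positive controls.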

Compound: O=C(O)C(Cl)Cl [Dichloroacetic acid]
- hypodiploid nuclei frequency (CHO-K1 [1]; [4]): 0.3%
- hypodiploid nuclei frequency (CHO-K1 [1]; [5]): 0.74%
- hypodiploid nuclei frequency (CHO-K1 [1]; [6]): 0.18%
- hypodiploid nuclei frequency (CHO-K1 [1]; [7]): 0.88%
- hypodiploid nuclei frequency (CHO-K1 [1]; [8]): 0.32%
- hypodiploid nuclei frequency (CHO-K1 [1]; [9]): 0.62%
- hypodiploid nuclei frequency (CHO-K1 [1]; [10]): 0.16%
- hypodiploid nuclei frequency (CHO-K1 [1]; [11]): 0.62%
- hypodiploid nuclei frequency (CHO-K1 [1]; [12]): 0.34%
- hypodiploid nuclei frequency (CHO-K1 [1]; [13]): 0.68%
- hypodiploid nuclei frequency (CHO-K1 [1]; [14]): 0.28%
- hypodiploid nuclei frequency (CHO-K1 [1]; [15]): 0.64%
- hypodiploid nuclei frequency (CHO-K1 [1]; [16]): 0.24%
- hypodiploid nuclei frequency (CHO-K1 [1]; [17]): 0.64%
- hypodiploid nuclei frequency (CHO-K1 [1]; [18]): 0.28%
- hypodiploid nuclei frequency (CHO-K1 [1]; [19]): 0.88%
- hypodiploid nuclei frequency (CHO-K1 [1]; [20]): 0.3%
- hypodiploid nuclei frequency (CHO-K1 [1]; [21]): 0.7%
- hypodiploid nuclei frequency (CHO-K1 [1]; [22]): 0.3%
- hypodiploid nuclei frequency (CHO-K1 [1]; [23]): 0.76%
- hypodiploid nuclei frequency (CHO-K1 [1]; [24]): 0.16%
- hypodiploid nuclei frequency (CHO-K1 [1]; [25]): 0.52%
- hypodiploid nuclei frequency (CHO-K1 [1]; [26]): 0.26%
- hypodiploid nuclei frequency (CHO-K1 [1]; [27]): 1.06%
- hypodiploid nuclei frequency (CHO-K1 [1]; [28]): 0.42%
- hypodiploid nuclei frequency (CHO-K1 [1]; [29]): 0.82%
- hypodiploid nuclei frequency (CHO-K1 [1]; [30]): 0.18%
- hypodiploid nuclei frequency (CHO-K1 [1]; [31]): 1.06%
- hypodiploid nuclei frequency (CHO-K1 [1]; [32]): 0.3%
- hypodiploid nuclei frequency (CHO-K1 [1]; [33]): 1.02%
- hypodiploid nuclei frequency (CHO-K1 [1]; [34]): 0.24%
- hypodiploid nuclei frequency (CHO-K1 [1]; [35]): 1.36%
- hypodiploid nuclei frequency (CHO-K1 [1]; [36]): 0.18%
- hypodiploid nuclei frequency (CHO-K1 [1]; [37]): 1.16%
- hypodiploid nuclei frequency (CHO-K1 [1]; [38]): 0.24%
- hypodiploid nuclei frequency (CHO-K1 [1]; [39]): 1.2%
- micronucleus frequency (CHO-K1 [2]; [4]): 1.66%
- micronucleus frequency (CHO-K1 [2]; [5]): 1.4%
- micronucleus frequency (CHO-K1 [2]; [6]): 1.12%
- micronucleus frequency (CHO-K1 [2]; [7]): 1.16%
- micronucleus frequency (CHO-K1 [2]; [8]): 0.92%
- micronucleus frequency (CHO-K1 [2]; [9]): 1.1%
- micronucleus frequency (CHO-K1 [2]; [10]): 1.06%
- micronucleus frequency (CHO-K1 [2]; [11]): 1.6%
- micronucleus frequency (CHO-K1 [2]; [12]): 0.98%
- micronucleus frequency (CHO-K1 [2]; [13]): 1.42%
- micronucleus frequency (CHO-K1 [2]; [14]): 1.22%
- micronucleus frequency (CHO-K1 [2]; [15]): 1.14%
- micronucleus frequency (CHO-K1 [2]; [16]): 1.38%
- micronucleus frequency (CHO-K1 [2]; [17]): 1.62%
- micronucleus frequency (CHO-K1 [2]; [18]): 1.24%
- micronucleus frequency (CHO-K1 [2]; [19]): 1.14%
- micronucleus frequency (CHO-K1 [2]; [20]): 1.66%
- micronucleus frequency (CHO-K1 [2]; [21]): 1.18%
- micronucleus frequency (CHO-K1 [2]; [22]): 1.58%
- micronucleus frequency (CHO-K1 [2]; [23]): 1.18%
- micronucleus frequency (CHO-K1 [2]; [24]): 1.72%
- micronucleus frequency (CHO-K1 [2]; [25]): 1.08%
- micronucleus frequency (CHO-K1 [2]; [26]): 1.32%
- micronucleus frequency (CHO-K1 [2]; [27]): 1.34%
- micronucleus frequency (CHO-K1 [2]; [28]): 1.4%
- micronucleus frequency (CHO-K1 [2]; [29]): 1.22%
- micronucleus frequency (CHO-K1 [2]; [30]): 1.22%
- micronucleus frequency (CHO-K1 [2]; [31]): 1.76%
- micronucleus frequency (CHO-K1 [2]; [32]): 1.1%
- micronucleus frequency (CHO-K1 [2]; [33]): 1.32%
- micronucleus frequency (CHO-K1 [2]; [34]): 1.54%
- micronucleus frequency (CHO-K1 [2]; [35]): 2.56%
- micronucleus frequency (CHO-K1 [2]; [36]): 1%
- micronucleus frequency (CHO-K1 [2]; [37]): 2.52%
- micronucleus frequency (CHO-K1 [2]; [38]): 1.38%
- micronucleus frequency (CHO-K1 [2]; [39]): 2.3%
- relative survival (CHO-K1 [3]; [4]): 123
- relative survival (CHO-K1 [3]; [5]): 134
- relative survival (CHO-K1 [3]; [6]): 93.8
- relative survival (CHO-K1 [3]; [7]): 114
- relative survival (CHO-K1 [3]; [8]): 90.1
- relative survival (CHO-K1 [3]; [9]): 129
- relative survival (CHO-K1 [3]; [10]): 81.6
- relative survival (CHO-K1 [3]; [11]): 103
- relative survival (CHO-K1 [3]; [12]): 92.2
- relative survival (CHO-K1 [3]; [13]): 123
- relative survival (CHO-K1 [3]; [14]): 85.2
- relative survival (CHO-K1 [3]; [15]): 134
- relative survival (CHO-K1 [3]; [16]): 67.8
- relative survival (CHO-K1 [3]; [17]): 90.3
- relative survival (CHO-K1 [3]; [18]): 84.8
- relative survival (CHO-K1 [3]; [19]): 107
- relative survival (CHO-K1 [3]; [20]): 84.8
- relative survival (CHO-K1 [3]; [21]): 100
- relative survival (CHO-K1 [3]; [22]): 87.7
- relative survival (CHO-K1 [3]; [23]): 85
- relative survival (CHO-K1 [3]; [24]): 123
- relative survival (CHO-K1 [3]; [25]): 95.7
- relative survival (CHO-K1 [3]; [26]): 86.5
- relative survival (CHO-K1 [3]; [27]): 108
- relative survival (CHO-K1 [3]; [28]): 93.5
- relative survival (CHO-K1 [3]; [29]): 117
- relative survival (CHO-K1 [3]; [30]): 79.8
- relative survival (CHO-K1 [3]; [31]): 96.4
- relative survival (CHO-K1 [3]; [32]): 100
- relative survival (CHO-K1 [3]; [33]): 73.2
- relative survival (CHO-K1 [3]; [34]): 73.7
- relative survival (CHO-K1 [3]; [35]): 96.4
- relative survival (CHO-K1 [3]; [36]): 53.1
- relative survival (CHO-K1 [3]; [37]): 92.8
- relative survival (CHO-K1 [3]; [38]): 82
- relative survival (CHO-K1 [3]; [39]): 70.2
